{"source": "the supplement of paper PMC8728848", "assay_in_all_cases": "glycan array binding signal (z-score within array); higher = stronger binding", "settings_in_all_cases": "glycan notation: IUPAC condensed, linker removed", "key": {"[1]": {"target": "Neu5Ac(a2-6)Gal(b1-4)GlcNAc(b1-2)Man(a1-6)[Man(a1-3)]Man(b1-4)GlcNAc(b1-4)GlcNAc", "in_short": "(§1)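 Glycan array binding is given as a within-array Z-score, which can be read as non-binding when negative. The arrays, 3228 of them, came from the Consortium for Functional Glycomics database and were retained only where the protein sequence was available. Z-scores were averaged across arrays of the same protein sequence at different concentrations or buffers and across linkers.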"}, "[2]": {"target": "Neu5Ac(a2-6)Gal(b1-4)GlcNAc(b1-3)Gal(b1-3)GlcNAc", "in_short": "as §1"}, "[3]": {"target": "Neu5Ac(a2-6)Gal(b1-4)GlcNAc(b1-3)Gal(b1-4)GlcNAc", "in_short": "as §1"}, "[4]": {"target": "Neu5Ac(a2-6)Gal(b1-4)GlcNAc(b1-3)Gal(b1-4)GlcNAc(b1-3)Gal(b1-4)GlcNAc", "in_short": "as §1"}, "[5]": {"target": "Neu5Ac(a2-6)Gal(b1-4)GlcNAc(b1-3)Gal(b1-4)[Fuc(a1-3)]GlcNAc(b1-3)Gal(b1-4)[Fuc(a1-3)]GlcNAc", "in_short": "as §1"}, "[6]": {"target": "Neu5Ac(a2-6)Gal(b1-4)GlcNAc(b1-3)GalNAc", "in_short": "as §1"}, "[7]": {"target": "Neu5Ac(a2-6)Gal(b1-4)GlcNAc6S", "in_short": "as §1"}, "[8]": {"target": "Neu5Ac(a2-6)GalNAc", "in_short": "as §1"}, "[9]": {"target": "Neu5Ac(a2-6)GalNAc(b1-4)GlcNAc", "in_short": "as §1"}, "[10]": {"target": "Neu5Ac(a2-6)GlcNAc(b1-4)GlcNAc", "in_short": "as §1"}, "[11]": {"target": "Neu5Ac(a2-6)GlcNAc(b1-4)GlcNAc(b1-4)GlcNAc", "in_short": "as §1"}, "[12]": {"target": "Neu5Ac(a2-8)Neu5Ac", "in_short": "as §1"}, "[13]": {"target": "Neu5Ac(a2-8)Neu5Ac(a2-3)Gal(b1-3)GalNAc(b1-4)[Neu5Ac(a2-8)Neu5Ac(a2-3)]Gal(b1-4)Glc", "in_short": "as §1"}, "[14]": {"target": "Neu5Ac(a2-8)Neu5Ac(a2-3)Gal(b1-4)Glc", "in_short": "as §1"}, "[15]": {"target": "Neu5Ac(a2-8)Neu5Ac(a2-3)[Gal(b1-3)GalNAc(b1-4)]Gal(b1-4)Glc", "in_short": "as §1"}, "[16]": {"target": "Neu5Ac(a2-8)Neu5Ac(a2-3)[GalNAc(b1-4)]Gal(b1-4)Glc", "in_short": "as §1"}, "[17]": {"target": "Neu5Ac(a2-8)Neu5Ac(a2-8)Neu5Ac", "in_short": "as §1"}, "[18]": {"target": "Neu5Ac(a2-8)Neu5Ac(a2-8)Neu5Ac(a2-3)Gal(b1-4)Glc", "in_short": "as §1"}, "[19]": {"target": "Neu5Ac(a2-8)Neu5Ac(a2-8)Neu5Ac(a2-3)[GalNAc(b1-4)]Gal(b1-4)Glc", "in_short": "as §1"}, "[20]": {"target": "Neu5Ac(a2-8)Neu5Ac(a2-8)Neu5Ac(a2-8)Neu5Ac(a2-3)[GalNAc(b1-4)]Gal(b1-4)Glc", "in_short": "as §1"}, "[21]": {"target": "Neu5Ac(b1-6)GalNAc", "in_short": "as §1"}, "[22]": {"target": "Neu5Ac(b2-6)Gal(b1-4)GlcNAc", "in_short": "as §1"}, "[23]": {"target": "Neu5Ac(b2-6)GalNAc", "in_short": "as §1"}, "[24]": {"target": "Neu5Ac9Ac(a2-3)Gal(b1-3)GlcNAc", "in_short": "as §1"}, "[25]": {"target": "Neu5Ac9Ac(a2-3)Gal(b1-4)GlcNAc", "in_short": "as §1"}, "[26]": {"target": "Neu5Ac9Ac(a2-6)Gal(b1-4)GlcNAc", "in_short": "as §1"}, "[27]": {"target": "Neu5Gc(a2-3)Gal(b1-3)GlcNAc", "in_short": "as §1"}, "[28]": {"target": "Neu5Gc(a2-3)Gal(b1-3)[Fuc(a1-4)]GlcNAc", "in_short": "as §1"}, "[29]": {"target": "Neu5Gc(a2-3)Gal(b1-4)Glc", "in_short": "as §1"}, "[30]": {"target": "Neu5Gc(a2-3)Gal(b1-4)GlcNAc", "in_short": "as §1"}, "[31]": {"target": "Neu5Gc(a2-3)Gal(b1-4)[Fuc(a1-3)]GlcNAc", "in_short": "as §1"}, "[32]": {"target": "Neu5Gc(a2-6)Gal(b1-4)GlcNAc", "in_short": "as §1"}, "[33]": {"target": "Neu5Gc(a2-6)GalNAc", "in_short": "as §1"}, "[34]": {"target": "Neu5Gc(b2-6)Gal(b1-4)GlcNAc", "in_short": "as §1"}}, "note": "The list shows a part of the results.", "data": [{"binder": "F17aG (Escherichia coli), Q99003 (protein) MTNFYKVFLAVFILVCCNISQAAVSFIGSTENDVGPSLGSYSRTHAMDNLPFVYDTRNKIGYQNANVWHISKGFCVGLDGKVDLPVVGSLDGQSIYGLTEEVGLLIWMGDTKYSRGTAMSGNSWENVFSGWCVGANTASTQGLSVRVTPVILKRNSSARYSVQKTSIGSIRMRPYNGSSAGSVQTTVNFSLNPFTLNDTVTSCRLLTPSAVNVSLAAISAGQLPSSGDEVVAGTTSLKLQCDAGVTVWATLTDATTPSNRSDILTLTGASTATGVGLRIYKNTDSTPLKFGPDSPVKGNENQWQLSTGTETSPSVRLYVKYVNTGEGINPGTVNGISTFTFSYQ", "values": [{"measurement": "glycan array binding signal (z-score)", "setting": "[1]", "value": -0.153}, {"measurement": "glycan array binding signal (z-score)", "setting": "[2]", "value": -0.16}, {"measurement": "glycan array binding signal (z-score)", "setting": "[3]", "value": -0.239}, {"measurement": "glycan array binding signal (z-score)", "setting": "[4]", "value": -0.134}, {"measurement": "glycan array binding signal (z-score)", "setting": "[5]", "value": -0.253}, {"measurement": "glycan array binding signal (z-score)", "setting": "[6]", "value": -0.17}, {"measurement": "glycan array binding signal (z-score)", "setting": "[7]", "value": -0.2}, {"measurement": "glycan array binding signal (z-score)", "setting": "[8]", "value": 0.165}, {"measurement": "glycan array binding signal (z-score)", "setting": "[9]", "value": -0.218}, {"measurement": "glycan array binding signal (z-score)", "setting": "[10]", "value": -0.171}, {"measurement": "glycan array binding signal (z-score)", "setting": "[11]", "value": -0.161}, {"measurement": "glycan array binding signal (z-score)", "setting": "[12]", "value": -0.078}, {"measurement": "glycan array binding signal (z-score)", "setting": "[13]", "value": -0.145}, {"measurement": "glycan array binding signal (z-score)", "setting": "[14]", "value": -0.254}, {"measurement": "glycan array binding signal (z-score)", "setting": "[15]", "value": -0.053}, {"measurement": "glycan array binding signal (z-score)", "setting": "[16]", "value": -0.256}, {"measurement": "glycan array binding signal (z-score)", "setting": "[17]", "value": -0.234}, {"measurement": "glycan array binding signal (z-score)", "setting": "[18]", "value": -0.25}, {"measurement": "glycan array binding signal (z-score)", "setting": "[19]", "value": -0.248}, {"measurement": "glycan array binding signal (z-score)", "setting": "[20]", "value": -0.227}, {"measurement": "glycan array binding signal (z-score)", "setting": "[21]", "value": -0.34}, {"measurement": "glycan array binding signal (z-score)", "setting": "[22]", "value": 0.235}, {"measurement": "glycan array binding signal (z-score)", "setting": "[23]", "value": -0.164}, {"measurement": "glycan array binding signal (z-score)", "setting": "[24]", "value": -0.156}, {"measurement": "glycan array binding signal (z-score)", "setting": "[25]", "value": -0.164}, {"measurement": "glycan array binding signal (z-score)", "setting": "[26]", "value": -0.185}, {"measurement": "glycan array binding signal (z-score)", "setting": "[27]", "value": -0.049}, {"measurement": "glycan array binding signal (z-score)", "setting": "[28]", "value": -0.259}, {"measurement": "glycan array binding signal (z-score)", "setting": "[29]", "value": -0.243}, {"measurement": "glycan array binding signal (z-score)", "setting": "[30]", "value": -0.191}, {"measurement": "glycan array binding signal (z-score)", "setting": "[31]", "value": -0.246}, {"measurement": "glycan array binding signal (z-score)", "setting": "[32]", "value": -0.265}, {"measurement": "glycan array binding signal (z-score)", "setting": "[33]", "value": -0.233}, {"measurement": "glycan array binding signal (z-score)", "setting": "[34]", "value": -0.172}]}]}
